Measured values as given in article PMC5642489.
Results are given in words; binding and its absence hold for the method and conditions named. Binding seen in cells or lysates may run through a third protein. Some entries that bind do so weakly or less than the wild type. Sequences can lack the tags named with a protein.

Sequences of proteins named here, by UniProt entry; tags and fusion partners are left off. A change or cut given only in a name is not applied to a line headed by its entry. Residues count along the entry.
UniProt Q92786: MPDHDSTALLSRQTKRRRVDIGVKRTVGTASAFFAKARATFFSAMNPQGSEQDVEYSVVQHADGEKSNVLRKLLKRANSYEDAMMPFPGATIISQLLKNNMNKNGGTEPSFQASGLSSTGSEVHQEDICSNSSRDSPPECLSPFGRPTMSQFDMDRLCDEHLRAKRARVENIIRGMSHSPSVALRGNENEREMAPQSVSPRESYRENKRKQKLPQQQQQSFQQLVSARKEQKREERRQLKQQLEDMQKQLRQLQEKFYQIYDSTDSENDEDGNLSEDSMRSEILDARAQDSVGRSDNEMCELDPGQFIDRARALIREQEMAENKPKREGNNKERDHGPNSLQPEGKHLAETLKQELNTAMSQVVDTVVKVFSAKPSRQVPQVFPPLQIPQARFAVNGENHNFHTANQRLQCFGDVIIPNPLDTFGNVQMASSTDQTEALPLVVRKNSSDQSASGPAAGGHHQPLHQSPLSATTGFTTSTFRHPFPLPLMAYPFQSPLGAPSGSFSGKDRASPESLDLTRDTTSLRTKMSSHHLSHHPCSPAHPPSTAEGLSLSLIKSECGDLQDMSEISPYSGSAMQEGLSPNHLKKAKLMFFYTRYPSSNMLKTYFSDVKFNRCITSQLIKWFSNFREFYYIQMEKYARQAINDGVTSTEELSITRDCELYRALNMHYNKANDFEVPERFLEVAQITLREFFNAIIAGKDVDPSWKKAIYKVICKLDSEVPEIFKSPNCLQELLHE
Flag-Prox1 N (1-337): residues 1-337 of Q92786
Flag-Prox1 M (335-570): residues 335-570 of Q92786
Flag-Prox1 C (544-738): residues 544-737 of Q92786

Key:
[1] = molecular target: T1, GST-fused NFAT2 protein (human) (UniProt O95644); test: pull-down; purified GST-NFAT2 bound to Glutathione-Sepharose beads (2 mg of GST fusion protein) incubated with 10 μl of 35S-methionine-labeled in vitro translated protein; autoradiography; only the target purified
T1 sequence: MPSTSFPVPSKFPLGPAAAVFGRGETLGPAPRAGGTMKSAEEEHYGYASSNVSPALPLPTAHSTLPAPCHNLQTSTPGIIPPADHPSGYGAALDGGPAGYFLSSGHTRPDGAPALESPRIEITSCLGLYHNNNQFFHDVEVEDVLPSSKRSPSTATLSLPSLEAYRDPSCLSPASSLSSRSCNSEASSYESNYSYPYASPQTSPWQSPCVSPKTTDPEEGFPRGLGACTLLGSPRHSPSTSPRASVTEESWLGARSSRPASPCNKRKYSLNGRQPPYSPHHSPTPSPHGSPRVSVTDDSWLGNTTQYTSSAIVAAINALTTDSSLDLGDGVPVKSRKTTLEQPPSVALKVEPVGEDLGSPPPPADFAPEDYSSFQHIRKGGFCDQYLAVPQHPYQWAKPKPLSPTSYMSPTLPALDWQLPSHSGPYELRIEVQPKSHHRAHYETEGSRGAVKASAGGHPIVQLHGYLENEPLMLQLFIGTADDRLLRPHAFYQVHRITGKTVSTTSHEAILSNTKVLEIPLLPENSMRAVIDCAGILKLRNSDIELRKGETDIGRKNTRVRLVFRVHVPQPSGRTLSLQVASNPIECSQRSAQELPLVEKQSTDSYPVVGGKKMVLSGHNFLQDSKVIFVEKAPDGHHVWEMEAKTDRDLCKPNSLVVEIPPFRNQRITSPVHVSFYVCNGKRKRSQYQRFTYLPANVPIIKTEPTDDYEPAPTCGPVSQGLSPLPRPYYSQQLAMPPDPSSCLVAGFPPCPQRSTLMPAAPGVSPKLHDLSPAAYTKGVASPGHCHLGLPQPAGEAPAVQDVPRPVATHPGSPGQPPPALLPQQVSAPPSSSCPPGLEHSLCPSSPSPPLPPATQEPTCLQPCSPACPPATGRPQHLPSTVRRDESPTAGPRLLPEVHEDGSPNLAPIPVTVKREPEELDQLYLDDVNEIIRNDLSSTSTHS

[2] = molecular target: T2, Flag-tagged NFAT2, in Huh7 (human) (UniProt O95644); test: co-IP; Huh7 cells transiently transfected with Flag-NFAT2, endogenous Prox1; anti-Flag agarose affinity gel for 6 h at 4°C; immunoblot with anti-NFAT2 or anti-Prox1 antibodies
T2 sequence: T1 sequence

[3] = molecular target: T3, Flag-tagged nuclear factor of activated T cells 2 (NFAT2), in HEK293T (human) (UniProt O95644); test: co-IP; HEK293T cells transiently co-transfected; 1 mg of protein incubated with anti-Flag agarose affinity gel for 6 h at 4°C; immunoblot with anti-Prox1, anti-NFAT2 or anti-Flag antibodies
T3 sequence: T1 sequence

[4] = molecular target: Flag-Prox1 N (1-337) (human) (UniProt Q92786); test: as above
[5] = molecular target: Flag-Prox1 C (544-738) (human) (UniProt Q92786); test: as above
[6] = molecular target: Flag-Prox1 M (335-570) (human) (UniProt Q92786); test: as above
[7] = molecular target: Flag-tagged Prox1, full length (human) (UniProt Q92786); test: as above

## 35S-labeled Prox1 C (544-738) (from UniProt Q92786 544-737) (domain or fragment)
[1]
  binding: no binding

## 35S-labeled Prox1 M (335-570) (from UniProt Q92786 335-570) (domain or fragment)
[1]
  binding: no binding

## 35S-labeled Prox1 N (1-337) (from UniProt Q92786 1-337) (domain or fragment)
[1]
  binding: binds

## 35S-labeled Prox1, full length (from UniProt Q92786 1-737)
[1]
  binding: binds

## Endogenous Prox1 of Huh7 cells (from UniProt Q92786 1-737)
[2]
  binding: binds

## Prospero-related homeobox 1 (Prox1), untagged, full length (from UniProt Q92786 1-737)
[3]
  binding: binds

B1: Nuclear factor of activated T cells 2 (NFAT2), untagged (protein, UniProt O95644 1-943)
chain: T1 sequence
[4]
  binding: binds
[5]
  binding: no binding
[6]
  binding: no binding
[7]
  binding: binds
